Assay results published in patent CN108264558A (SHANGHAI NOVOPROTEIN BIOTECHNOLOGY CO LTD, dated 2018).

Key:
CD19-CD3-4-1BBL TsM_M = molecular target: T1, CD19-CD3-4-1BBL TsM_M; assay: ELISA, target coated at 1 μg/ml, TsM titrated from 10 μg/ml
T1 construct: monomer confirmed by SDS-PAGE and mass spectrometry; also called 单体形式的抗CD19/抗CD3/4-1BBL三特异性分子; 单体形式的TiTE三特异分子

CD19-CD3-4-1BBL TsM_D = molecular target: T2, CD19-CD3-4-1BBL TsM_D; assay: as above
T2 construct: Two chains joined by disulfide bonds of the IgD hinge (dimer by non-reducing SDS-PAGE and mass spectrometry); also called 二聚体形式的抗CD19/抗CD3/4-1BBL三特异性分子; 二聚体形式的TiTE三特异分子

B1: 人类4-1BB-hFc融合蛋白 (Fc fusion)
chain: not shown
notes: Bought from 吴江近岸蛋白质科技有限公司; also called 重组蛋白4-1BB-hFc; T细胞正共刺激分子4-1BB-hFc; not shown: human Fc (hFc)
binding result (CD19-CD3-4-1BBL TsM_M): binds
binding result (CD19-CD3-4-1BBL TsM_D): binds
